Measured values: the supplement of paper PMC4604168 (melanoma cell lines)
The list shows a part of the results. Repeats are few or missing, and single values can be far off.

The compounds below were run on 501Mel (assay: cell count relative to DMSO control; melanoma cells; higher = more viable cells). Conditions: library dose: standard library concentration; 72 h.
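Also: cells treated in 1,536-well plates, then fixed and DAPI-stained, with nuclei counted from automated high-throughput microscope images.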

How did the cell count turn out when `O=c1[nH]nc(Sc2ncc([N+](=O)[O-])s2)n1-c1ccc2c(c1)OCCO2` + C/C(O)=C(\C#N)C(=O)Nc1cc(Br)ccc1Br [LFM-A13] (first compound 1 µM, partner dose 10 µM) was run?
The cell count was 109%.

Which cell count does the source give for `Cn1cncc1[C@@](N)(c1ccc(Cl)cc1)c1ccc2c(c1)c(-c1cccc(Cl)c1)cc(=O)n2C` [tipifarnib] + Cc1cc(SCc2sc(-c3ccc(C(F)(F)F)c(F)c3)nc2C)ccc1OCC(=O)O [GW0742] (first compound 0.05 µM, partner dose 10 µM) here?
Its cell count is 67.2%.

With `Cc1cn(-c2cc(NC(=O)c3ccc(C)c(Nc4nccc(-c5cccnc5)n4)c3)cc(C(F)(F)F)c2)cn1` [nilotinib] + O=C(Oc1ccc([N+](=O)[O-])cc1)N1CCC(C(O)(c2ccc3c(c2)OCO3)c2ccc3c(c2)OCO3)CC1 [JZL184] (first compound 1 µM, partner dose 5 µM) as the compound, how does the cell count read?
Its cell count is 86.6%.

How did the cell count turn out when `O=C(Nc1cccc(Cl)c1)Nc1ncc(CCNc2ncnc3ccsc23)s1` + C/C(O)=C(\C#N)C(=O)Nc1cc(Br)ccc1Br [LFM-A13] (first compound 0.004 µM, partner dose 10 µM) was run?
The cell count was 89.8%.

How did the cell count turn out when `NC(=O)c1ccc(N(C(N)=O)c2c(F)cccc2F)nc1-c1ccc(F)cc1F` + O=C(Oc1ccc([N+](=O)[O-])cc1)N1CCC(C(O)(c2ccc3c(c2)OCO3)c2ccc3c(c2)OCO3)CC1 [JZL184] (first compound 2 µM, partner dose 5 µM) was run?
The cell count was 82.7%.

With `C[C@]1(O)C[C@@H](c2nc(-c3ccc4ccc(-c5ccccc5)nc4c3)c3c(N)nccn32)C1` + O=C(Oc1ccc([N+](=O)[O-])cc1)N1CCC(C(O)(c2ccc3c(c2)OCO3)c2ccc3c(c2)OCO3)CC1 [JZL184] (first compound 2 µM, partner dose 5 µM) as the compound, how does the cell count read?
The cell count was 74.3%.

With `O=C(Nc1cc(C(F)(F)F)cc(C(F)(F)F)c1)c1cc(Cl)ccc1O` + O=C(Oc1ccc([N+](=O)[O-])cc1)N1CCC(C(O)(c2ccc3c(c2)OCO3)c2ccc3c(c2)OCO3)CC1 [JZL184] (first compound 0.08 µM, partner dose 5 µM) as the compound, how does the cell count read?
The cell count was 85.6%.

How did the cell count turn out when `OCc1c[nH]c2ccccc12` [Indole-3-carbinol] + O=C(Oc1ccc([N+](=O)[O-])cc1)N1CCC(C(O)(c2ccc3c(c2)OCO3)c2ccc3c(c2)OCO3)CC1 [JZL184] (first compound 4 µM, partner dose 5 µM) was run?
The cell count was 100%.

With `N#CC[C@H](C1CCCC1)n1cc(-c2ncnc3[nH]ccc23)cn1` [ruxolitinib] + O=C(Oc1ccc([N+](=O)[O-])cc1)N1CCC(C(O)(c2ccc3c(c2)OCO3)c2ccc3c(c2)OCO3)CC1 [JZL184] (first compound 5 µM, partner dose 5 µM) as the compound, how does the cell count read?
The cell count was 88.8%.

With `CO[C@@H]1[C@H](N(C)C(=O)c2ccccc2)C[C@H]2O[C@]1(C)n1c3ccccc3c3c4c(c5c6ccccc6n2c5c31)C(=O)NC4` [Midostaurin] + Cc1cc(SCc2sc(-c3ccc(C(F)(F)F)c(F)c3)nc2C)ccc1OCC(=O)O [GW0742] (first compound 0.4 µM, partner dose 10 µM) as the compound, how does the cell count read?
Its cell count is 80.6%.

Which cell count does the source give for `CS(=O)(=O)c1ccc(C(=O)Nc2ccc(Cl)c(-c3ccccn3)c2)c(Cl)c1` [vismodegib] + C/C(O)=C(\C#N)C(=O)Nc1cc(Br)ccc1Br [LFM-A13] (first compound 5 µM, partner dose 10 µM) here?
The cell count was 85.2%.

Which cell count does the source give for `CC1(C)CCC(c2ccc(Cl)cc2)=C(CN2CCN(c3ccc(C(=O)NS(=O)(=O)c4ccc(N[C@H](CCN5CCOCC5)CSc5ccccc5)c(S(=O)(=O)C(F)(F)F)c4)cc3)CC2)C1` + C/C(O)=C(\C#N)C(=O)Nc1cc(Br)ccc1Br [LFM-A13] (first compound 2 µM, partner dose 10 µM) here?
Its cell count is 95.3%.

Which cell count does the source give for `O=C(/C=C/c1cccnc1)NCCCCC1CCN(C(=O)c2ccccc2)CC1` + O=C(Oc1ccc([N+](=O)[O-])cc1)N1CCC(C(O)(c2ccc3c(c2)OCO3)c2ccc3c(c2)OCO3)CC1 [JZL184] (first compound 0.05 µM, partner dose 5 µM) here?
Its cell count is 80.3%.

For `CNC(=O)c1cc(Oc2ccc(NC(=O)Nc3ccc(Cl)c(C(F)(F)F)c3)cc2)ccn1` [sorafenib] + C/C(O)=C(\C#N)C(=O)Nc1cc(Br)ccc1Br [LFM-A13] (first compound 2 µM, partner dose 10 µM), which cell count is on record?
Its cell count is 113%.

With `Cc1cc(Nc2cc(N3CCN(C)CC3)nc(/C=C/c3ccccc3)n2)n[nH]1` + O=C(Oc1ccc([N+](=O)[O-])cc1)N1CCC(C(O)(c2ccc3c(c2)OCO3)c2ccc3c(c2)OCO3)CC1 [JZL184] (first compound 0.2 µM, partner dose 5 µM) as the compound, how does the cell count read?
The cell count was 69%.

With `Nc1cccc2c1CN(C1CCC(=O)NC1=O)C2=O` (stereo unspecified) [lenalidomide] + Cc1cc(SCc2sc(-c3ccc(C(F)(F)F)c(F)c3)nc2C)ccc1OCC(=O)O [GW0742] (first compound 5 µM, partner dose 10 µM) as the compound, how does the cell count read?
The cell count was 88.8%.

With `CS(=O)(=O)c1ccc(C(=O)Nc2ccc(Cl)c(-c3ccccn3)c2)c(Cl)c1` [vismodegib] + O=C(Oc1ccc([N+](=O)[O-])cc1)N1CCC(C(O)(c2ccc3c(c2)OCO3)c2ccc3c(c2)OCO3)CC1 [JZL184] (first compound 5 µM, partner dose 5 µM) as the compound, how does the cell count read?
Its cell count is 88.8%.

`Cn1cnc2c(F)c(Nc3ccc(Br)cc3Cl)c(C(=O)NOCCO)cc21` [selumetinib] + O=C(Oc1ccc([N+](=O)[O-])cc1)N1CCC(C(O)(c2ccc3c(c2)OCO3)c2ccc3c(c2)OCO3)CC1 [JZL184] (first compound 0.075 µM, partner dose 5 µM) was tested. Which cell count did it give?
Its cell count is 40.1%.

For `C/C(O)=C(\C#N)C(=O)Nc1cc(Br)ccc1Br` + CCCCCCCCCCCC1=C(O)C(=O)C=C(O)C1=O [Embelin] (first compound 10 µM, partner dose 6 µM), which cell count is on record?
The cell count was 84.1%.

For `O=C(Nc1cc(C(F)(F)F)cc(C(F)(F)F)c1)c1cc(Cl)ccc1O` + C/C(O)=C(\C#N)C(=O)Nc1cc(Br)ccc1Br [LFM-A13] (first compound 0.08 µM, partner dose 10 µM), which cell count is on record?
The cell count was 123%.

With `CC1(C)NC(=O)N(c2ccc([N+](=O)[O-])c(C(F)(F)F)c2)C1=O` [nilutamide] + Cc1cc(SCc2sc(-c3ccc(C(F)(F)F)c(F)c3)nc2C)ccc1OCC(=O)O [GW0742] (first compound 5 µM, partner dose 10 µM) as the compound, how does the cell count read?
Its cell count is 76.5%.

Which cell count does the source give for `O=C(O)c1ccc(-c2c[nH]c3ncc(-c4ccccc4)cc23)cc1C1CCCC1` + C/C(O)=C(\C#N)C(=O)Nc1cc(Br)ccc1Br [LFM-A13] (first compound 0.8 µM, partner dose 10 µM) here?
Its cell count is 101%.

With `Cc1ccc(NC(=O)c2cccc(N(C)C)c2)cc1NC(=O)c1ccc(O)cc1` + O=C(Oc1ccc([N+](=O)[O-])cc1)N1CCC(C(O)(c2ccc3c(c2)OCO3)c2ccc3c(c2)OCO3)CC1 [JZL184] (first compound 10 µM, partner dose 5 µM) as the compound, how does the cell count read?
Its cell count is 61.5%.

For `C/C(O)=C(\C#N)C(=O)Nc1cc(Br)ccc1Br` + O=C1NC(=O)/C(=C/c2ccc(-c3ccc(F)cc3O)o2)S1 [AS252424] (first compound 10 µM, partner dose 5 µM), which cell count is on record?
Its cell count is 105%.

With `O=c1[nH]nc(Sc2ncc([N+](=O)[O-])s2)n1-c1ccc2c(c1)OCCO2` + O=C(Oc1ccc([N+](=O)[O-])cc1)N1CCC(C(O)(c2ccc3c(c2)OCO3)c2ccc3c(c2)OCO3)CC1 [JZL184] (first compound 1 µM, partner dose 5 µM) as the compound, how does the cell count read?
Its cell count is 71.8%.

`NC(=O)Nc1cc(-c2cccc(F)c2)sc1C(=O)N[C@H]1CCCNC1` + O=C(Oc1ccc([N+](=O)[O-])cc1)N1CCC(C(O)(c2ccc3c(c2)OCO3)c2ccc3c(c2)OCO3)CC1 [JZL184] (first compound 0.1 µM, partner dose 5 µM) was tested. Which cell count did it give?
Its cell count is 82.2%.

For `CCCS(=O)(=O)Nc1ccc(F)c(C(=O)c2c[nH]c3ncc(Cl)cc23)c1F` + O=C(Oc1ccc([N+](=O)[O-])cc1)N1CCC(C(O)(c2ccc3c(c2)OCO3)c2ccc3c(c2)OCO3)CC1 [JZL184] (first compound 0.4 µM, partner dose 5 µM), which cell count is on record?
Its cell count is 89.2%.

With `O=C(Oc1ccc([N+](=O)[O-])cc1)N1CCC(C(O)(c2ccc3c(c2)OCO3)c2ccc3c(c2)OCO3)CC1` + CC(C)CCN1c2nc(Nc3cc(F)c(O)c(F)c3)ncc2N(C)C(=O)C1C [BID1870] (first compound 5 µM, partner dose 1 µM) as the compound, how does the cell count read?
Its cell count is 74.1%.

With `COc1cc(Nc2ncc(F)c(Nc3ccc4c(n3)NC(=O)C(C)(C)O4)n2)cc(OC)c1OC` [Tamatinib] + Cc1cc(SCc2sc(-c3ccc(C(F)(F)F)c(F)c3)nc2C)ccc1OCC(=O)O [GW0742] (first compound 2 µM, partner dose 10 µM) as the compound, how does the cell count read?
Its cell count is 105%.

For `COc1cc2c(Oc3ccc4[nH]c(C)cc4c3F)ncnc2cc1OCCCN1CCCC1` [cediranib] + O=C(Oc1ccc([N+](=O)[O-])cc1)N1CCC(C(O)(c2ccc3c(c2)OCO3)c2ccc3c(c2)OCO3)CC1 [JZL184] (first compound 2 µM, partner dose 5 µM), which cell count is on record?
Its cell count is 85.3%.

With `COc1cc(Nc2ncc(F)c(Nc3ccc4c(n3)NC(=O)C(C)(C)O4)n2)cc(OC)c1OC` [Tamatinib] + C/C(O)=C(\C#N)C(=O)Nc1cc(Br)ccc1Br [LFM-A13] (first compound 2 µM, partner dose 10 µM) as the compound, how does the cell count read?
The cell count was 65.7%.
